Measured values reported in PubChem BioAssay (NCI).
Values joined by “and” are separate entries in the source; they are usually repeats but may differ in a detail not shown here. Equal values may be shown once.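 Interpolation was linear, between the two tested concentrations surrounding the appropriate level; five concentrations were tested over 48 hours in 96-well plates. GI50 is the concentration that inhibits growth by half. TGI is the concentration that stops growth completely.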

Tested on: NCI-H322M lung
Experiment: inhibition of tumour cell growth, NCI panel, 48 h

| Structure (SMILES) | GI50 [µM] | TGI |
| --- | --- | --- |
| N#C/C(=C\c1ccc(Cl)cc1)n1nnc2cc(F)c(F)cc21 | 1.87 | 4.59 µM |
| COC1CCC(OS(C)(=O)=O)CO1 (stereo not drawn) |  | > 100 µM |
| CC1=Cc2cc3[n-]c(cc4nc(cc5[n-]c(cc1n2)c(C)c5CCC(=O)O)C(CCC(=O)O)=C4C)cc3C.[Cu+2] | > 71.3 | > 100 µM |
| CC/C(=C/OC)P1(=O)OC(C)(C)CN1C(C)(C)C (stereo not drawn) |  | > 100 µM |
| Cc1cc2c(cc1Cl)SC(NNC(=O)c1ccncc1)=NS2(=O)=O |  | > 10 µM |
| C[C@@H](Oc1cc(-c2cnn(C3CC4(CCNCC4)C3)c2)cnc1N)c1c(F)ccc(Cl)c1Cl | 3.13 | 10.5 µM |
| CC(=O)O[C@H]1C(=O)[C@@]2(C)[C@H]([C@H](OC(=O)c3ccccc3)[C@]3(O)C[C@H](OC(=O)[C@H](OC(=O)CCC(=O)OC4CCC(S/N=C(N)/N=C(\N)N(C)C)CC4)[C@@H](NC(=O)c4ccccc4)c4ccccc4)C(C)=C1C3(C)C)[C@]1(OC(C)=O)CO[C@@H]1C[C@@H]2O (stereo partly drawn) | 0.0272 | > 50 µM |
| C/C(=C\c1csc(C)n1)[C@@H]1C[C@@H]2O[C@]2(C)CCC[C@H](C)[C@H](O)[C@@H](C)C(=O)C(C)(C)[C@@H](O)CC(=O)O1 (tested in a mixture with another compound) |  | > 0.588 µM |
| O=C(/C=C/c1ccc2c(c1)OCO2)c1ccccc1 | 15.4 | 35 µM |
| CC1=C([Se]CC(OC(=O)[C@@H](CSSC(C)(C)C)NC(=O)C(C)(C)C)C(=O)NCCCCCC(=O)OCc2ccccc2)C(=O)c2ccccc2C1=O (stereo partly drawn) | 0.397 | 2.29 µM |
| O=C(/C=C/c1c(O)c2ccccc2[nH]c1=O)CC(=O)C(=O)Nc1cccc(O)c1 |  | > 100 µM |
| COC(=O)CC1CN(C(=O)OCc2ccccc2)C(C)(C)O1 (stereo not drawn) |  | > 100 µM |
| COc1ccc2c(c1)-c1c(c3ccccc3n1CCN1CCCCC1)CC2 |  | 24.6 µM |
| CCCOc1ccc(/C=C/C2=[N+](CCO)CCO2)cc1 |  | > 100 µM |
| OC1C=C2C3CN(Cc4cc5c(cc43)OCO5)[C@H]2C[C@@H]1O (stereo partly drawn) |  | 51.5 µM |
| C[C@]12CC[C@H]3[C@@H](CC=C4C[C@@H](O)CC[C@@]43C)[C@@H]1C/C(=C\c1cccc(OCCCn3ccnc3)c1)[C@@H]2O | 17.1 | 33.9 µM |
| CCn1cc(C(=O)O)c(=O)c2cc(F)c(N3CCN(Cn4c(O)c(N=NC(=O)c5ccncc5)c5cc(Cl)ccc54)CC3)cc21 |  | > 100 µM |
| O=C(CC1(O)C(=O)Nc2ccccc21)c1ccc(O)cc1O (stereo not drawn) |  | > 100 µM |
| COc1cc(/C=C/C(=O)CC(=O)/C=C/c2ccc(OC(=O)CCNC34CC5CC(CC(C5)C3)C4)c(OC)c2)ccc1OC(=O)CCNC12CC3CC(CC(C3)C1)C2 | 15 | 30 µM |
| CC(C)CC(=O)OC[n+]1cccc(-c2c(COC(=O)NC(C)C)c(COC(=O)NC(C)C)c3n2CCC3)c1 |  | > 100 µM |
| O=C1C=CC(=O)N1c1ccc2c(c1)Cc1cc(NC(=O)C(F)(F)F)ccc1-2 |  | > 84.9 µM |
| C=CCNC(NCC=C)=C(C(Cl)=C(Cl)Cl)[N+](=O)[O-] |  | > 100 µM |

| Structure (SMILES) | GI50 [µM] | TGI |
| --- | --- | --- |
| CC1CC(C)C(=O)C(C(=O)CC2CC(=O)NC2=O)C1 (stereo not drawn) |  | > 100 µM |
| COc1c(C(CC(C)C)OC(C)=O)ccc2c1C(=O)OCc1cc(C)cc(O)c1O2 (stereo not drawn) |  | 32.7 µM |
| CCOC(=O)C(=O)Nc1ccc([N+](=O)[O-])cc1C#N |  | > 100 µM |
| Cn1c(Cc2ccccc2)nc2cc3ccccc3cc21 | 23.2 | > 100 µM |
| CC(=O)C1(c2ccccc2)CCCN(C)CC1 (stereo not drawn) |  | > 100 µM |
| CCCN(CCC)C(=S)N/N=C/c1cccc(C)n1 |  | 10.4 µM |
| O[C@H]1[C@H]2[C@H](O)CCCN2C[C@H]1O |  | > 100 µM |
| CCOC(=O)CCc1c(C)c2ccc(O)cc2oc1=O |  | > 100 µM |
| CCOC(=O)c1ccc2[nH]c(Cc3[nH]c4ccc(C(=O)OCC)cc4c3C)c(C)c2c1 | 10.7 | 70.3 µM |
| O=C1CC(N2C(=O)/C(=C/C(Cl)=C\c3ccc([N+](=O)[O-])cc3)SC2=S)C(=O)N1c1ccc(Cl)cc1 (stereo not drawn) | 3 | > 100 µM |
| COc1ccc(C2c3cc4c(cc3OC(O)(CO)C2C(=O)O)OCO4)c(OC)c1OC (stereo not drawn) (tested in a mixture with another compound) |  | > 100 µM |
| [N-]=[N+]=Nc1cc(=O)n(-c2ccccc2)c(=O)n1-c1ccccc1 |  | > 100 µM |
| O=C(O)c1ccccc1C(=O)OCC1CCCN2CCCCC12 (stereo not drawn) |  | > 100 µM |
| CC1=CC[C@@]2(C)[C@@H]([C@@H]1C)[C@H]1CC[C@@H]3[C@@]4(C)CC[C@H](O)C(C)(C)[C@@H]4CC[C@@]3(C)[C@]1(C)C[C@@H]2O |  | > 100 µM |
| C#CCOC(=O)C(N)CS (stereo not drawn) |  | > 100 µM |
| COC(=O)C(Cc1ccccc1)C(=O)NC(CNC(=O)OCc1ccccc1)C(=O)OCc1ccccc1 (stereo not drawn) |  | > 100 µM |
| Nc1ccn(C2OC(COP(=O)(O)O)C(O)C2O)c(=O)n1 (stereo not drawn) |  | > 100 µM |
| CC1=C(C#N)C(=O)N(/N=C/c2ccc(Cl)cc2)C(=O)/C1=c1\o/c(=C2/C(=O)N(/N=C/c3ccc(Cl)cc3)C(=O)C(C#N)=C2C)c2nccnc12 |  | > 100 µM |
| COC1(OC)C[C@H](C)[C@@]23O[C@]24c2cc(O)c5c(c2N[C@H]3C#C/C=C\C#C[C@]14O)C(=O)c1ccccc1C5=O | 0.0329 | 0.222 µM and 0.411 µM |
| COc1cc2c3c(n(CCCn4ccnc4)c(=O)c2cc1OC)-c1ccccc1C3=O | 0.132 | 5.02 µM |
| O=C(O/N=C1/CCC/C1=C\c1ccccc1)c1ccccc1 |  | > 100 µM |
| C/C=C/CP(=O)(c1ccccc1)c1ccccc1 |  | > 100 µM |

| Structure (SMILES) | GI50 [µM] | TGI |
| --- | --- | --- |
| O=S(=O)([N-]c1nc2ccccc2nc1-[n+]1ccccc1)c1ccccc1 |  | > 100 µM |
| O=c1[nH]cnc2c1nnn2[C@@H]1O[C@H](CO)[C@@H](O)[C@H]1O | 12.3 | > 100 µM |
| N=c1oc2cc(O)c(O)cc2cc1C(N)=O |  | > 100 µM |
| O=C(NN1C(=O)/C(=C/c2ccc(Cl)cc2)N=C1c1ccccc1)c1c(Cl)c(Cl)c(Cl)c(Cl)c1-c1nc2ccccc2[nH]1 |  | > 100 µM |
| C=CCOCCCC(=O)C(=[N+]=[N-])C(=O)OC |  | > 100 µM |
| CCOC(=O)c1c(-c2ccc(Cl)cc2)c(C#N)c(=S)n(C2OC(CO)C(O)C(O)C2O)c1-c1ccccc1 (stereo not drawn) |  | > 100 µM |
| CO[C@H]1C[C@@H]2CC[C@@H](C)[C@@](O)(O2)C(=O)C(=O)N2CCCC[C@H]2C(=O)O[C@H]([C@H](C)C[C@@H]2CC[C@@H](OC(=O)C(C)(CO)CO)[C@H](OC)C2)CC(=O)[C@H](C)/C=C(\C)[C@@H](O)[C@@H](OC)C(=O)[C@H](C)C[C@H](C)/C=C/C=C/C=C/1C | 5.82 |  |
| Cc1ccc(-c2nc3nc(-c4ccc(Cl)cc4)nc(N4CCCNCC4)c3o2)cc1 | 1.63 | 2.98 µM |
| S=C(NCCCCCCNC(=S)Nc1c2ccccc2nc2ccccc12)Nc1c2ccccc2nc2ccccc12 |  | > 100 µM |
| c1ccc2c(c1)n1c(N3CCOCC3)[n+]3ccccc3c1c1c3cccc[n+]3c(N3CCOCC3)n21 |  | > 100 µM |
| NC(=Nc1ccc(Cl)c(Cl)c1)c1ccccc1N |  | > 100 µM |
| CN(C)c1ccc2[nH]c(O)c(C=Nc3ccc(S(N)(=O)=O)cc3)c2c1 | > 25 | > 25 µM |
| N#Cc1c(C(N)=O)ncn1Cc1ccccc1 |  | > 100 µM |
| CCN(CC)CCCC(C)N/C(c1cccc(OC)c1)=c1\c(=O)[nH]n(-c2c3ccccc3nc3ccccc23)c(=O)\c1=C(/NC(C)CCCN(CC)CC)c1cccc(OC)c1 (stereo not drawn) | 1.28 | 3.42 µM |
| COc1ccc(/C=c2/[nH]c(=O)/c(=C\c3ccc(OCc4ccccc4)cn3)[nH]c2=O)cc1 |  | > 100 µM |
| CCC[CH2][Sn]([CH2]CCC)([O]C(=O)c1cccc(F)c1F)[O][Sn]([CH2]CCC)([CH2]CCC)[O]C(=O)c1cccc(F)c1F | 1.3 | 2.57 µM |
| CC1C(c2ccccc2)=CCON1c1ccccc1 (stereo not drawn) |  | > 100 µM |
| COC(=O)c1cccc(C)c1C1CN=NC12Cc1c(ccc(C)c1C)C2=O (stereo not drawn) |  | > 100 µM |
| Cc1c(N(C(=O)c2cc(-c3cc(Cl)ccc3C(=O)N3Cc4ccccc4C[C@H]3CN3CCOCC3)n(C)c2C)c2ccc(O)cc2)cc(C#N)n1C | 33 | > 100 µM |
| CCN(CC)CCCN1C(=O)c2c(c(C)c3c(oc4cc(O)ccc43)c2C)C1=O | 1.7 | 3.11 µM |
| CC(=O)C1=C(O)C2(O)C(=O)c3c(c(C)c4ccc(C)c(O)c4c3O)CC2C(N)C1=O (stereo not drawn) |  | 9.04 µM |
| CCOC(=O)C1=C(C)C2C3C(=O)NC(=O)C3C1(C)C1C(=O)NC(=O)C21 (stereo not drawn) |  | > 100 µM |

| Structure (SMILES) | GI50 [µM] | TGI |
| --- | --- | --- |
| Cc1cc(-c2cc(C)c(O)c(C(C)(C)C)c2)cc(C(C)(C)C)c1O |  | 26.3 µM and 28.8 µM |
| CN1CCN(CCCOc2ccc3ncnc(Nc4ccc(Oc5cccc(C(F)(F)F)c5)c(Cl)c4)c3c2)CC1 | 1.37 | 3.04 µM |
| CCC[C@H](Nc1nc(-c2ccc(NC(=O)NCC)c(OC)c2)ncc1C)c1cccnc1 | 0.0825 | 46.2 µM |
| C/C(=N\[N+](C)(C)C)C(c1ccccc1)C1(c2ccccc2)C(c2ccccc2)=C1c1ccccc1 (stereo not drawn) |  | > 100 µM |
| Cc1cccc(NC(=O)CSc2nnc(Cc3ccccc3)o2)c1 |  | > 100 µM |
| Cc1cc(S(=O)(=O)/N=C(\N)n2nc(C)c(C)c2C)c(SCc2ccccc2)cc1Cl | > 100 | > 100 µM |
| Cc1cc(Cl)ccc1NC(=O)/C(CC(=O)CC(c1ccccc1)c1c(O)c2ccccc2oc1=O)=N\O (stereo not drawn) |  | > 100 µM |
| C=CCN1C(=O)N/C(=C\c2ccc(Cl)cc2)C1=O |  | > 100 µM |
| CC(=O)Oc1cc2c(=O)oc3c(OC(C)=O)c(OC(C)=O)c(OC(C)=O)c4c(=O)oc(c1OC(C)=O)c2c34 |  | > 100 µM |
| O=C1C(Br)=C(c2ccccc2)C(c2ccccc2)=C1c1ccccc1 |  | 29.5 µM |
| Cc1c(C(=O)Nc2ccc(Cl)c(C(F)(F)F)c2)oc2cc(O)ccc2/c1=N\NC(N)=S |  | > 100 µM |
| COc1cc(C(=O)O)ccc1NC(=O)[C@@H]1N[C@@H](CC(C)(C)C)[C@](C#N)(c2ccc(Cl)cc2F)[C@H]1c1cccc(Cl)c1F | 6.72 | 19.3 µM |
| O=S(=O)(NCCNc1cc(-c2cn(-c3ccccc3)nc2-c2cccc(O)c2)ccn1)c1ccc(F)cc1 | 3.48 | 18.2 µM |
| CCN(CC)/C(=C\Cl)Nc1ccccn1 |  | > 100 µM |
| Cc1c(Cl)c(=O)oc2cc(OCC(=O)c3ccccc3)ccc12 |  | > 100 µM |
| O=C1c2ccccc2-c2ccc(O)cc21 |  | 70.3 µM |
| O=C(CSc1nc2sc3c(c2c(=O)n1-c1ccccc1)CCCCC3)N/N=C/c1ccc(F)cc1 | 4.72 | 70.4 µM |
| Cc1cc(Nc2nc(N3CCOCC3)nc3ccccc23)n[nH]1 | 26.1 | > 100 µM |
| C/C(=C\c1ccn(-c2ccc(N)cc2C(F)(F)F)n1)[C@@H]1C[C@@H]2O[C@]2(C)CCC[C@H](C)[C@H](O)[C@@H](C)C(=O)C(C)(C)[C@@H](O)CC(=O)O1 | 0.681 | > 11.1 µM |
